# ± gives the standard deviation of the averaged measurements. The list shows a part of the results.
# System: PfAP2-EXP AP2 domain (GST-tagged)
# Assay: gcPBM binding intensity (ln(normalized median fluorescence intensity)); higher = stronger DNA binding
# Summary of the method: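 GST-tagged P. falciparum DNA-binding domains produced in E. coli were incubated for 1 h on an Agilent 4 × 180k array of primer-extended double-stranded 36-bp intergenic genomic probes with negative controls. Binding intensity is the highest Masliner-normalised natural-log median intensity across replicate spots of either probe orientation, with bound protein detected by Alexa488 anti-GST antibody at 488 nm.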
row,Sequence,gcPBM binding intensity (ln)
1,TTACGATTTAAAATGGGTACATATATATGAAAAAAA [XGTACX_site545],8.68 ± 0.4
2,TCAAAGTAAAACAGGACATGCACAGAACATCCTGCC [TGCATGCA_site2],8.72 ± 0.35
3,TAAAGAAAAATATAAAGTACAAAAATAAAAAAAATA [XGTACX_site8226],8.68 ± 0.52
4,TACACAAAGTTACATACACACTAATATTTACACCAT [CACACA_site6602],8.64 ± 0.36
5,AAAAAAAAAACATACACACACATATAGATTTATATG [CACACA_site6847],8.46 ± 0.42
6,GTATTTATGTGTTTGGTGCAAGGGAGAATTTTTTTT,8.83 ± 0.34
7,CATAAATACAAATATACACACATATTTATATTTATA [CACACA_site7277],8.28 ± 0.36
8,AATATGTTTTACGTCTCACACATATAGGTTTATATT [CACACA_site4713],8.8 ± 0.38
9,ATATATAGATGTGAATTATTTATATTATCTATTCTT [CACACA_negctrl_site518],8.16 ± 0.18
10,ATTATACTTTCCATTCGTACATATATAAATAAATAA [XGTACX_site6245],8.93 ± 0.35
11,AAACTTCAAAAAGAGCACTTGAATTTTTTTTTTTTT [TGCATGCA_negctrl_site133],8.12 ± 0.39
12,AAAAAGAACACAAAAAGTACAAAAATTATAATGATA [XGTACX_site2676],8.79 ± 0.74
13,ATATTTTAAAATAATACACACAAAATGATTCTTAAT [CACACA_site2930],8.88 ± 0.46
14,AACAATAAATTATTATGTACACATATATTATATATA [XGTACX_site4629],8.38 ± 0.32
15,TATATTATATAATTTTAACACACAAGAATATAAACT [CACACA_site8378],8.71 ± 0.57
16,ATAAGTATTACTAGTACACACAAGTTGTTAATCCTT [CACACA_site3324],8.8 ± 0.45
17,TATTTAAAATAATAACAAAATTAACATAAATATATA [GTGCAC_negctrl_site472],8.31 ± 0.42
18,TTAGATATAAAAGCATGTACTTGTATAAAATATATA [XGTACX_site8272],8.35 ± 0.42
19,TTCCCTATATAGAGCATGCACTATATTCAAATGATG,9.23 ± 0.16
20,TTATCAAATGAGTGTTGTACGTCTTTTGAAATACCA [XGTACX_site8804],8.29 ± 0.3
21,GAAAAATTGAATTTGGGTACATATAAATATTATATT [XGTACX_site2363],8.27 ± 0.35
22,ATAAATATTAGCAGTTGTACAATAAATATATGTAAT [XGTACX_site2534],8.71 ± 0.38
23,TATGAACACCCAAATACACACACTCAAAAAAAAAAA [CACACA_site5466],8.4 ± 0.32
24,AAAATGTTTTTATCCAGTACATAAATATATATATAT [XGTACX_site7398],9.89 ± 0.26
25,TCAGATCCATAGAAGGTGCAAATAACAAAAATACAA [GTGCAC_site9610],9.23 ± 0.11

# Source: the supplement of paper PMC11417369
